Results are given in words; binding and its absence hold for the method and conditions named. Binding seen in cells or lysates may run through a third protein. Some binding calls cover weakened binding; strength is not graded here. For some assays here: Where a sequence is shown, tags or fusion partners need not be part of it.
Legend:
[1] = target: T1, endogenous ITGAL (Jurkat cells) (human (endogenous in Jurkat)) (UniProt P20701); test: co-IP; endogenous proteins from Jurkat cells, immunoprecipitated with an ITGAL antibody (GFP antibody as negative control)
T1 sequence: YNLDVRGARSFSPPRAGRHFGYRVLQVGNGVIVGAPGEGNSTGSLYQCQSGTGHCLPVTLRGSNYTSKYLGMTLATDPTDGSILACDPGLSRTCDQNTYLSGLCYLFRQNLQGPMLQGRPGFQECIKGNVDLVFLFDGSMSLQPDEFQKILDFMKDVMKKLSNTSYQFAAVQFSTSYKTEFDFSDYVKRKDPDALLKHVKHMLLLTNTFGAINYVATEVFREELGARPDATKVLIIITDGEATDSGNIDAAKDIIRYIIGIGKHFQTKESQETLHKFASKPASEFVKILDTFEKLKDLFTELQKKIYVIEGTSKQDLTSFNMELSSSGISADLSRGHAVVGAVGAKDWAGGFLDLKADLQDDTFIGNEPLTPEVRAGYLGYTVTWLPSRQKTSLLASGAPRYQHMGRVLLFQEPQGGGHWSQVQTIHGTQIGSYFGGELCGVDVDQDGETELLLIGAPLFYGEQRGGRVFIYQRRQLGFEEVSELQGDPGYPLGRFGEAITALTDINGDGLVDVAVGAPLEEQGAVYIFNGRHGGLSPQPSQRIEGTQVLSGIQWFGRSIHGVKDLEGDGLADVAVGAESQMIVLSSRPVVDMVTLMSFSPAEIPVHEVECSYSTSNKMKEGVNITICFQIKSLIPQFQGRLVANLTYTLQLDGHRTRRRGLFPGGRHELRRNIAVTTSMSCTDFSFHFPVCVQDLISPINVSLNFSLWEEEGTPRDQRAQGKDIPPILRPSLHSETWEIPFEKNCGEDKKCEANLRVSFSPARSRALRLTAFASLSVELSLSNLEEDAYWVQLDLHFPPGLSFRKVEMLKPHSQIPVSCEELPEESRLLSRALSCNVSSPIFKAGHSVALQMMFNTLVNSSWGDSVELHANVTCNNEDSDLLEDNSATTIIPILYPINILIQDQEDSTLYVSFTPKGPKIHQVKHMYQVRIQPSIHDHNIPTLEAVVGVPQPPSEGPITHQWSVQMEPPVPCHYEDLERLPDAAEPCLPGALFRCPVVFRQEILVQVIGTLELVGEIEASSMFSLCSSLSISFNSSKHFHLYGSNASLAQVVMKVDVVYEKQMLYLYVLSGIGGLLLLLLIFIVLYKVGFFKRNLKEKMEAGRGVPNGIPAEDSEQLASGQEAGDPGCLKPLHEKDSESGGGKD

Protein sequences, listed by entry. Tags and fused reporters are not part of them.
UniProt Q96EP0: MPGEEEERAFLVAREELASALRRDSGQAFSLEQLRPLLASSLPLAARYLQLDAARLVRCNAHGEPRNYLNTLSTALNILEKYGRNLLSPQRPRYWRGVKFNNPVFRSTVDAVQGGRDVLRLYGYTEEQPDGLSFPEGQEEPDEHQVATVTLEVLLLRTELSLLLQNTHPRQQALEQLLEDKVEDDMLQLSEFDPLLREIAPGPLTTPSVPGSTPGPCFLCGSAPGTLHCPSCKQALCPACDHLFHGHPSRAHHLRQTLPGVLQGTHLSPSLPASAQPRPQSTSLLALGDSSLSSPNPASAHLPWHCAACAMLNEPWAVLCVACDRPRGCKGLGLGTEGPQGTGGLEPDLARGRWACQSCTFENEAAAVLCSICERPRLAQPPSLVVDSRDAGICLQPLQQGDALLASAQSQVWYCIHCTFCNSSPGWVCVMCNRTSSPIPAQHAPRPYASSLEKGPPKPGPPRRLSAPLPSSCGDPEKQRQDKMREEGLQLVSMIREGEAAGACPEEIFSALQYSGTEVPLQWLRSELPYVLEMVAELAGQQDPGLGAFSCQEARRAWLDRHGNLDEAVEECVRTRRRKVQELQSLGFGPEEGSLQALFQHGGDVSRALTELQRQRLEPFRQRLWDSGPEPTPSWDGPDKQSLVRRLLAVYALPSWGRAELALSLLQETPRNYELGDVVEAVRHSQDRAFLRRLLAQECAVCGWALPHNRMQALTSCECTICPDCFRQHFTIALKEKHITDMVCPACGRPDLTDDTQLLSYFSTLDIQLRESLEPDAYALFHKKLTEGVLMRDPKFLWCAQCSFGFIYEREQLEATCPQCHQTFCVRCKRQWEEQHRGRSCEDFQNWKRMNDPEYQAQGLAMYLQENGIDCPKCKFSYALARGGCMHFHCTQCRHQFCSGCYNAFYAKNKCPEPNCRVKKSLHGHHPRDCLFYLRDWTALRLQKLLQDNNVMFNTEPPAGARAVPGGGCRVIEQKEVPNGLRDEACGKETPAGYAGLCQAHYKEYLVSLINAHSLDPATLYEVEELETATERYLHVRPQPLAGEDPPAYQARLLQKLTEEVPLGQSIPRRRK

[2] = target: T2, GFP-SHARPIN^WT (UniProt Q9H0F6); test: pull-down; pull-down of GFP-SHARPIN from HEK293 cells, adherent or in suspension; RNF31 normalized to total RNF31 and pulled-down GFP-SHARPIN
T2 sequence: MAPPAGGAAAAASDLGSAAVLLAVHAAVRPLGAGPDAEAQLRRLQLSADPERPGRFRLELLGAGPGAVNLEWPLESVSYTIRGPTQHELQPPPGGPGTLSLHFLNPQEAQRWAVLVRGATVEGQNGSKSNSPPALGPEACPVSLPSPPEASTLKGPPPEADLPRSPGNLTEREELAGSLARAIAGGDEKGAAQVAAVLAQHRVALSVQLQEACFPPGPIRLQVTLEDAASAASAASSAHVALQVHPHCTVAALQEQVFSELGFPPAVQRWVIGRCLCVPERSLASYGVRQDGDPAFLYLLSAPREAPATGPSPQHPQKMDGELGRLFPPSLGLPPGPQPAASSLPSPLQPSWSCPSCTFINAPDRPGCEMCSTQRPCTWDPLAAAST

Row | Substance | binding [1] | binding [2]
1 | endogenous RNF31 (Jurkat cells) (from UniProt Q96EP0 1-1072) (enzyme) | no binding | –
2 | RNF31 in HEK293 cells (from UniProt Q96EP0 1-1072) (enzyme) | – | binds

Reference: PMC4658161
